Measurements from US11197891B2, “Therapies with lanthionine C-like protein 2 ligands and cells prepared therewith” (Landos Biopharma, Inc., priority 2017, dated 2021).

Test system: C. difficile
Experiment: C. difficile culture in chopped meat media (anti-microbial properties)
Conditions: exposure to BT-11

O=C(c1cccc(-c2nc3ccccc3[nH]2)n1)N1CCN(C(=O)c2cccc(-c3nc4ccccc4[nH]3)n2)CC1 [BT-11, N,N-Bis(benzimidazolylpicolinoyl)piperazine]
production of Toxin A or Toxin B: did not change production of Toxin A or Toxin B
